# PubChem BioAssay AID485360 (National Center for Advancing Translational Sciences (NCATS), 2010)
# The campaign covered roughly 230,000 compounds. About 1,500 (0.65%) were called active. Inconclusive results, whose numbers are uncertain, are shown with a selection of clear calls. Calls come from the whole dose curve; as a rule, active = well fitted inhibition curve with a large enough effect; inconclusive = small, poorly fitted or top-dose-only effect; inactive = no such curve, though single readings can be large or run the other way. Where the call is inconclusive, the potency comes from a doubtful curve fit.
# Molecular target: Lethal(3)malignant brain tumor-like protein 1 (Homo sapiens) (UniProt Q9Y468)
# UniProt Q9Y468, sequence (Q9Y468 whole entry, looked up): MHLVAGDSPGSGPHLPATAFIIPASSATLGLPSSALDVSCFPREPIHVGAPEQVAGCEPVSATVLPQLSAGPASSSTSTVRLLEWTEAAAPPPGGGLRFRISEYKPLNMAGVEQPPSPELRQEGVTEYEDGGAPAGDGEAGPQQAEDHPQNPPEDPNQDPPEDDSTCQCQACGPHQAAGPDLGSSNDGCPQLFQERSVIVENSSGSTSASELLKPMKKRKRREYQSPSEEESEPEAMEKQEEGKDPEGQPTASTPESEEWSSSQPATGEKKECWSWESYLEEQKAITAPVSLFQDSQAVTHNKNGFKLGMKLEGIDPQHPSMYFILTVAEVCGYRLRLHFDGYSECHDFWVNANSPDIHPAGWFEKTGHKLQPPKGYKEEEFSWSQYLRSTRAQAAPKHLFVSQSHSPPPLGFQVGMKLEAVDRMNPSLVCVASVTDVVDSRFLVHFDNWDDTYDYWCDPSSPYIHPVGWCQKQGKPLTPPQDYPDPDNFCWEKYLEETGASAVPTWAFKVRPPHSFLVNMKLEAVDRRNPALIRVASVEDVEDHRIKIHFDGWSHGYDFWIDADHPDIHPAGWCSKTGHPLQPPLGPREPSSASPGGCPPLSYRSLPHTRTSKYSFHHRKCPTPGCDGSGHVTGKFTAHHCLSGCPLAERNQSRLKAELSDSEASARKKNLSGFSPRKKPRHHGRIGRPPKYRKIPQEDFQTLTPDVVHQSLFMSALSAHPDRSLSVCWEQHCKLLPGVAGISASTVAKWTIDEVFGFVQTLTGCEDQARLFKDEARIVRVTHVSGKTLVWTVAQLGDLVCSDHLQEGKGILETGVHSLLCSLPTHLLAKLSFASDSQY
# Assay: qHTS Assay for the Inhibitors of L3MBTL1; note: nearly all actives have a fitted effect of over 60% in size
# Settings: AlphaScreen L3MBTL1–H3K9me1 peptide binding; activity, negative = inhibition: at 57.1 µM (top of the series)
# Method in brief: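 L3MBTL1 (50 nM) pre-complexed 30 min with biotinylated H3(1-15)K9me1 peptide (75 nM), then compounds added for 30 min at room temperature; AlphaScreen streptavidin donor/nickel chelate acceptor beads (10 ug/mL final) read after 30 min dark incubation.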
# % is set by controls: 0 for no effect and ±100 for the full control effect; potency is the fitted concentration of half-maximal effect; tags give direction and shape of the fitted curve.
Structure (SMILES),Potency,"activity, negative = inhibition"
O=C1NC(=S)S/C1=C\c1ccc(SCc2ccccc2)o1,active: 28.2 µM,
Cc1nc2cc(NCc3nc4ccccc4n3Cc3ccccc3)ccc2n1C,"inconclusive: 15.8 µM [inhibitor, partial curve]",
O=[N+]([O-])c1ccc(-c2nc(-c3cccs3)c(-c3cccs3)[nH]2)cc1,"inconclusive: 28.2 µM [inhibitor, single point]",
COCc1c(N)c(C)nc(Cl)c1C#N,"inconclusive: 22.4 µM [inhibitor, single point]",
Cc1ccccc1NCc1ccc(O)c2ncccc12,"inconclusive: 28.2 µM [inhibitor, single point]",
O=C(/C=C/c1ccco1)N1CCN(c2ncccn2)CC1,,inactive: -3.55%
CCN(c1ccc(NC(=O)COC(=O)CCc2nc3ccccc3n2-c2ccccc2)cc1)C(C)C,"inconclusive: 25.1 µM [inhibitor, partial curve]",
C[N+]1(CC(=O)Nc2ccc(F)cc2)CCN(C(=O)c2ccco2)CC1,,inactive: 2.73%
CCCN(CCC)C(=S)NC(=O)c1ccc(-c2ccccc2)cc1,"inconclusive: 14.1 µM [inhibitor, partial curve]",
Oc1ccccc1CNc1cccc2cccnc12,"inconclusive: 28.2 µM [inhibitor, single point]",
COc1ccc(CC(=O)OC(C)C(=O)NC2CCCCC2C)cc1 (stereo not given),,inactive: 6.14%
CN(CC(=O)Nc1ccc(N2CCOCC2)cc1)C(=O)CSc1ccc(F)cc1,,inactive: -0.618%
CNc1ccncc1S(=O)(=O)NC,,inactive: 2.65%
Cc1cc(Cl)c(C)c(S(=O)(=O)N2CCN(CC(=O)N3CCOCC3)CC2)c1Cl,,inactive: 1.73%
CCOC(=O)c1cnc2c(ccc3ccccc32)c1NCCCN(C)C,,inactive: 1.5%
O=C(NCCCN1CCOCC1)C(=O)N/N=C/c1ccccc1O,"inconclusive: 39.8 µM [inhibitor, single point]",
O=C(Nc1ccc(Cl)cc1)N1CCCN(c2ccc(C(F)(F)F)cc2[N+](=O)[O-])CC1,"inconclusive: 22.4 µM [inhibitor, single point]",
Cc1ccc(S(=O)(=O)/N=C2\C=C(Nc3ccc(O)cc3)C(=O)c3ccccc32)cc1,"inconclusive: 14.1 µM [inhibitor, single point]",
CCN(CC)S(=O)(=O)c1cccc(NC(=O)COC(=O)/C=C/c2ccco2)c1,"inconclusive: 25.1 µM [inhibitor, single point]",
CNc1c([N+](=O)[O-])cnn1-c1cccc(Cl)n1,,inactive: 17.8%
Cc1cccc(N2C(=O)N3[C@@H]4c5ccccc5OC[C@@H]4[C@@H](c4ccccc4)[C@@]3(C)C2=O)c1,"inconclusive: 0.708 µM [inhibitor, single point]",
CN(C)C(/C=C/Nc1ccc(F)cc1)=C(C#N)C#N,"inconclusive: 39.8 µM [inhibitor, single point]",

Structure (SMILES),Potency,"activity, negative = inhibition"
C#CCOCCOCCOCCNc1nc(N2CCN(C(=O)C([C@@H](C)O)n3cc([C@@H](N)CCCCN)nn3)CC2)nc(N2CCN(C(=O)C([C@@H](C)O)n3cc([C@@H](N)CCCCN)nn3)CC2)n1 (stereo not given in full),,inactive: 3.16%
CC(=O)c1ccc(N2CC(C)(C)C2=O)cc1,"inconclusive: 0.1 µM [inhibitor, full curve, poor fit]",
O=C(OCC(=O)N1CCN(c2ccccc2)CC1)c1ccc2ncsc2c1,"inconclusive: 31.6 µM [inhibitor, single point]",
CC(=O)Nc1ccccc1C(=O)C(=O)Nc1cccc(C(=O)NCC2CCCO2)c1 (stereo not given),"inconclusive: 0.1 µM [inhibitor, full curve, poor fit]",
O=c1[nH]c(CN2CCN(c3ccccc3O)CC2)nc2scc(-c3ccccc3Cl)c12,"inconclusive: 12.6 µM [inhibitor, partial curve]",
O=C(C[C@H]1C[C@H](C(=O)N2CCCCC2)[C@@]2(CCc3ccccc3)c3[nH]c4cc(-c5ccco5)ccc4c3CCN2C1=O)NCCC1=CCCCC1,"inconclusive: 35.5 µM [inhibitor, single point]",
CC(=O)Oc1cccc(N2C(=O)c3cccc4c([N+](=O)[O-])ccc(c34)C2=O)c1,,inactive: 6.17%
COc1ccc(CNC(=O)CSc2ncnc3ccccc23)cc1OC,"inconclusive: 0.794 µM [inhibitor, single point]",
N#CCSc1nnc(-c2ccc(S(=O)(=O)N3CCOCC3)cc2)n1CC1CCCO1 (stereo not given),,inactive: 5.48%
O=C(/C=C/c1ccco1)NC(=S)Nc1cccc([N+](=O)[O-])c1,active: 35.5 µM,
COC(=O)c1c(C(=O)OC)c(-c2cccc(Cl)c2)n2c1CS(=O)C2 (stereo not given),"inconclusive: 7.94 µM [inhibitor, partial curve, poor fit]",
CC(CCc1ccco1)NC(=O)Cn1ncc2c1-c1ccccc1OC2 (stereo not given),,inactive: -10.3%
COc1cc(CC(=O)OCC(=O)NCc2ccco2)cc(OC)c1OC,"inconclusive: 35.5 µM [inhibitor, single point]",
CCOc1ccc(NC(=O)CSc2nnc(Cn3cnc([N+](=O)[O-])n3)n2C)cc1,"inconclusive: 39.8 µM [inhibitor, single point]",
CCCN(C(=O)c1cc(Cl)nc2ccccc12)C1CCS(=O)(=O)C1 (stereo not given),"inconclusive: 5.62 µM [inhibitor, single point]",
O=[N+]([O-])c1ccc(-n2cccc2/C=N/Nc2nc(N3CCCCC3)nc(N3CCCCC3)n2)cc1,"inconclusive: 14.1 µM [inhibitor, partial curve]",
CC1CCCN(C(=S)Nc2ccc3nc4n(c(=O)c3c2)CCCCC4)C1 (stereo not given),"inconclusive: 39.8 µM [inhibitor, single point]",
Cn1cc(CCC(=O)N2CCCC(C(=O)c3cccc4ccccc34)C2)cn1 (stereo not given),"inconclusive: 5.01 µM [inhibitor, full curve, poor fit]",
COc1ccc(C(=O)Oc2cccc3cccnc23)cc1[N+](=O)[O-],"inconclusive: 35.5 µM [inhibitor, single point]",
COc1ccc(-c2cc(-c3n[nH]c(=S)n3-c3cccc4ccccc34)[nH]n2)cc1,"inconclusive: 12.6 µM [inhibitor, partial curve, poor fit]",
Cc1ccc(OCC(O)Cn2c(NCCc3ccccc3)nc3c2c(=O)[nH]c(=O)n3C)cc1 (stereo not given),"inconclusive: 5.62 µM [inhibitor, single point]",
COC(=O)c1ccc(NC(=O)Nc2ccc3c(c2)nc(C)n3C)cc1,,inactive: -2.04%

Structure (SMILES),Potency,"activity, negative = inhibition"
CCOC(=O)c1c(NC(=O)COC(=O)/C=C/c2ccco2)sc2c1CC(C)(C)NC2(C)C,"inconclusive: 7.08 µM [inhibitor, single point]",
Cc1cc(C=O)c(C)n1-c1ccc(NC2CCCCC2)c([N+](=O)[O-])c1,active: 15.8 µM,
O=C(CSc1ccccn1)N1CCNC1=O,,inactive: 0.953%
O=C(c1ccccc1)c1c(O)cc(-c2ccccc2)oc1=O,"inconclusive: 39.8 µM [inhibitor, single point]",
C/C(=C\C(=O)c1c(O)cc(C)oc1=O)N(C)C,"inconclusive: 25.1 µM [inhibitor, single point]",
CCn1cc(Cl)c(C(=O)Nc2ccc3c(c2)OCCO3)n1,"inconclusive: 10 µM [inhibitor, partial curve]",
CC(=O)c1c2c3c(cccc3n(C)c1=O)C(=O)c1ccccc1-2,"inconclusive: 39.8 µM [inhibitor, single point]",
CCN1CCN(c2nc(N)c([N+](=O)[O-])c(Nc3ccc(C)c(C)c3)n2)CC1,"inconclusive: 25.1 µM [inhibitor, single point]",
OCCN=C1CCCc2c1[nH]c1ccc(Br)cc21,"inconclusive: 3.55 µM [inhibitor, single point]",
COc1ccc(NC(=O)CSc2nnc(-c3ccccn3)n2N)cc1,"inconclusive: 25.1 µM [inhibitor, single point]",
O=C(COC(=O)Cc1ccc(F)cc1)NCc1ccco1,"inconclusive: 31.6 µM [inhibitor, single point]",
Cc1ccc(-c2csc3ncnc(OCC(=O)NC(=O)NCc4ccco4)c23)cc1,"inconclusive: 20 µM [inhibitor, single point]",
Cc1ccccc1NC(=O)CCC(=O)N/N=C/c1cc([N+](=O)[O-])ccc1O,"inconclusive: 39.8 µM [inhibitor, single point]",
COC(=O)c1ccc(CNC(=O)Cn2cnc(C(=O)Nc3ccc(C)c(C)c3)n2)cc1,,inactive: -1.41%
CCCN(C(=O)c1cc(-c2ccco2)nc2ccccc12)c1c(N)n(Cc2ccccc2)c(=O)[nH]c1=O,"inconclusive: 35.5 µM [inhibitor, single point]",
COc1cc(/C=C2/C(=O)NN(c3cccc(Cl)c3)C2=O)cc(Br)c1O,,inconclusive: -35.6% [inhibitor]
Cn1c(CBr)c(C(=O)c2ccc([N+](=O)[O-])cc2)c(=O)n(C)c1=O,,inactive: 3.1%
O=C(O)c1cc(O)c2c(c1)[C@@H]([C@H]1c3cc(C(=O)O)cc(O)c3C(=O)c3c(O[C@@H]4O[C@H](CO)[C@@H](O)[C@H](O)[C@H]4O)cccc31)c1cccc(O[C@@H]3O[C@H](CO)[C@@H](O)[C@H](O)[C@H]3O)c1C2=O,active: 0.112 µM,
S=c1[nH]nc(-c2ccco2)n1/N=C/c1ccc(Cl)cc1Cl,,inactive: -9.7%
CC(C)(C)C(=O)Nc1ncccc1C(O)c1cccc(C(F)(F)F)c1 (stereo not given),"inconclusive: 0.501 µM [inhibitor, partial curve, poor fit]",
Cc1c(C(=O)OCC(C)C)[nH]c2c1C(=O)CC(c1ccco1)C2 (stereo not given),"inconclusive: 28.2 µM [inhibitor, single point]",
